In the supplement of paper PMC4967469:
IC50 is the fitted dose that halves viability relative to control wells, and lower means more sensitive; fits outside the tested doses are given as limits. AUC sums up the same curve from the lowest dose to the 256-fold higher top dose; values near 1 show little effect. For part of these data: The top dose, if marked as inferred, was calculated from the reported fits. For part of these data: Where an entry number is given, a second screen of the drug exists; the two often differ.

Columns and labels:
Experiment in all cases: Viability of human cancer cell lines after 72 h of drug (GDSC screen)
[1] = compound: C=CC(=O)Nc1cc(-n2c(=O)ccc3cnc4ccc(-c5cn[nH]c5)cc4c32)ccc1C [QL-X-138]; conditions: top dose 10.24 µM; top dose inferred
Experimental: (§1)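 Human cancer cell lines in 384-well plates, medium with 10% serum, drug for 72 h over a 256-fold dose range (nine 2-fold or five 4-fold steps up to the top dose). Adherent lines were fixed and stained with the nucleic acid dye Syto60, suspension lines read with resazurin; signal relative to control wells, capped at 0 and 100%. One two-parameter sigmoid per drug and line, fitted in a mixed model over all curves with the slope shared within a line.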

[2] = compound: C[C@]1(c2nc3c(C(N)=O)cccc3[nH]2)CCCN1 [ABT-888]; conditions: top dose 5 µM; top dose inferred
Experimental: as §1

[3] = compound: O=c1cc(-c2cccc3c2Sc2ccccc2S3)oc(N2CCOCC2)c1 [KU-55933]; conditions: top dose 10 µM
Experimental: as §1

[4] = compound: COc1cc(N2CCC(O)CC2)ccc1Nc1cc(Nc2ccccc2S(=O)(=O)C(C)C)c2cc[nH]c2n1 [MPS-1-IN-1]; conditions: top dose 20 µM; top dose inferred
Experimental: as §1

[5] = compound: COc1nc(C)cnc1NS(=O)(=O)c1cccnc1-c1ccc(-c2nnco2)cc1 [Zibotentan]; conditions: top dose 20 µM; top dose inferred
Experimental: as §1

[6] = compound: Cc1cnc(-c2cnc(NCCNc3ccc(C#N)cn3)nc2-c2ccc(Cl)cc2Cl)[nH]1 [CHIR-99021]
Experimental: as §1

[7] = compound: CCn1c(-c2nonc2N)nc2cnc(Oc3cccc(NC(=O)c4ccc(OCCN5CCOCC5)cc4)c3)cc21 [GSK269962A]; conditions: top dose inferred
Experimental: as §1

[8] = compound: COc1cc(O)c2c(c1)/C=C/C[C@H](O)[C@H](O)C(=O)/C=C\C[C@H](C)OC2=O [(5Z)-7-Oxozeaenol]; conditions: top dose 10 µM; top dose inferred
Experimental: as §1

[9] = compound: Cc1ccc(-c2c(C(=O)CCl)n(CCCO)c3ncnc(N)c23)cc1 [CMK]; conditions: top dose 4 µM; top dose inferred
Experimental: as §1

[10] = compound: Nc1ccn([C@@H]2O[C@H](CO)[C@@H](O)[C@@H]2O)c(=O)n1 [Cytarabine]; conditions: top dose 2 µM
Experimental: as §1

[11] = compound: COc1cc2ncnc(-n3nc(-c4ccccn4)nc3N)c2cc1OC [CP466722]; conditions: top dose 16 µM; top dose inferred
Experimental: as §1

[12] = compound: C/C=C(/C)C(=O)O[C@H]1C(C)=C2[C@H]([C@@H]1OC(=O)CCCCCCC)[C@@](C)(OC(C)=O)C[C@H](OC(=O)CCC)[C@@]1(O)[C@H]2OC(=O)[C@@]1(C)O [Thapsigargin]; conditions: top dose 0.512 µM; top dose inferred
Experimental: as §1

[13] = compound: Cc1ccc(F)c(NC(=O)Nc2ccc(-c3cccc4[nH]nc(N)c34)cc2)c1 [ABT-869]; conditions: top dose 1.024 µM; top dose inferred
Experimental: as §1

[14] = top dose 2.56 µM, screen: GDSC drug entry 154
[15] = top dose 10 µM, screen: GDSC drug entry 1241, top dose inferred
[16] = top dose 2.5 µM, screen: GDSC drug entry 127
[17] = top dose 5 µM, screen: GDSC drug entry 1192

Row | Cell Line | AUC [1] | IC50 [1] [nM] | AUC [2] | IC50 [2] [nM] | AUC [3] | IC50 [3] [nM] | AUC [4] | IC50 [4] [nM] | AUC [5] | IC50 [5] [nM] | AUC [6, 14] | IC50 [6, 14] [nM] | AUC [6, 15] | IC50 [6, 15] [nM] | AUC [7, 16] | IC50 [7, 16] [nM] | AUC [7, 17] | IC50 [7, 17] [nM] | AUC [8] | IC50 [8] [nM] | AUC [9] | IC50 [9] [nM] | AUC [10] | IC50 [10] [nM] | AUC [11] | IC50 [11] [nM] | AUC [12] | IC50 [12] [nM] | AUC [13] | IC50 [13] [nM]
1 | BC-1 (B-cell lymphoma, suspension) | 0.529 | 758 | 0.989 | > 5000 | 0.956 | > 10000 | 0.859 | 12800 | 0.99 | > 20000 | 0.989 | > 2560 | 0.922 | > 10000 | 0.87 | 1760 | 0.605 | 580 | 0.712 | 2230 | 0.897 | 3660 | 0.988 | > 2000 | 0.645 | 2360 | 0.487 | 29.7 | 0.979 | > 1020
2 | BE2-M17 (neuroblastoma, adherent) | 0.88 | > 10200 | 0.98 | > 5000 | 0.985 | > 10000 | 0.941 | > 20000 | 0.983 | > 20000 | 0.982 | > 2560 | 0.986 | > 10000 | 0.984 | > 2500 | 0.755 | 1750 | 0.388 | 304 | 0.915 | > 4000 | 0.73 | 579 | 0.866 | 14900 | 0.43 | 20.5 | 0.985 | > 1020
3 | BE-13 (lymphoblastic leukaemia, suspension) | 0.799 | 4540 | 0.978 | > 5000 | 0.842 | 6350 | 0.822 | 10700 | 0.977 | > 20000 | 0.978 | > 2560 | 0.817 | 5120 | 0.494 | 151 | 0.466 | 254 | 0.704 | 2250 | 0.957 | > 4000 | 0.732 | 543 | 0.575 | 1580 | 0.274 | 7.69 | 0.862 | 783
4 | BT-474 (breast, adherent) | 0.435 | 416 | 0.986 | > 5000 | 0.986 | > 10000 | 0.968 | > 20000 | 0.98 | > 20000 | 0.986 | > 2560 | 0.97 | > 10000 | 0.982 | > 2500 | 0.888 | > 5000 | 0.702 | 2490 | 0.985 | > 4000 | 0.972 | > 2000 | 0.823 | 10900 | 0.721 | 147 | 0.984 | > 1020
5 | BV-173 (chronic myeloid leukaemia, suspension) | 0.382 | 316 | 0.952 | > 5000 | 0.843 | 5880 | 0.748 | 5780 | 0.988 | > 20000 | 0.976 | > 2560 | 0.844 | 5910 | 0.9 | > 2500 | 0.822 | 2470 | 0.762 | 3170 | 0.935 | > 4000 | 0.183 | 16.4 | 0.578 | 1590 | 0.349 | 13 | 0.989 | > 1020
6 | Becker (glioma, adherent) | 0.8 | 5710 | 0.982 | > 5000 | 0.949 | > 10000 | 0.978 | > 20000 | 0.967 | > 20000 | 0.942 | > 2560 | 0.9 | > 10000 | 0.937 | > 2500 | 0.855 | 4790 | 0.696 | 2400 | 0.946 | > 4000 | 0.782 | 943 | 0.856 | 15600 | 0.667 | 99.6 | 0.967 | > 1020
7 | CA46 (Burkitt lymphoma, suspension) | 0.445 | 449 | 0.984 | > 5000 | 0.966 | > 10000 | 0.838 | 15000 | 0.982 | > 20000 | 0.985 | > 2560 | 0.924 | > 10000 | 0.928 | > 2500 | 0.795 | 2510 | 0.726 | 2890 | 0.946 | > 4000 | 0.968 | > 2000 | 0.635 | 2430 | 0.295 | 8.08 | 0.97 | > 1020
8 | CAS-1 (glioma, adherent) | 0.745 | 4280 | 0.982 | > 5000 | 0.973 | > 10000 | 0.979 | > 20000 | 0.953 | > 20000 | 0.941 | > 2560 | 0.899 | > 10000 | 0.685 | 627 | 0.527 | 380 | 0.782 | 5860 | 0.937 | > 4000 | 0.908 | > 2000 | 0.888 | > 16000 | 0.602 | 67.6 | 0.951 | > 1020
